Laboratory results from PubChem BioAssay AID889 (National Center for Advancing Translational Sciences (NCATS), 2007).
“And” between values parts separate entries of the source, which are not always exact repeats. Identical values can stand only once. The campaign covered roughly 75,000 compounds. About 15 (0.02%) were called active. This list was built around the results that the source calls inconclusive (neither active nor inactive); the mix of calls is not that of the screen. Calls come from the whole dose curve; as a rule, active = well fitted inhibition curve with a large enough effect in the main read-out, with a control signal flat (not every such curve was filed as active); inconclusive = small, poorly fitted or top-dose-only effect, or a change in a side signal; inactive = flat fitted curve, though single readings scatter. A potency beside an inconclusive call is a rough fit, not a confirmed value. “Side channel” marks fits to a control or component signal instead of the main read-out. Numbered stars: 1 amine (or outer) side, 2 acyl side, 3 side chain; on linkers, the order of the positions; unused ones are H or OH. Bridge positions count the residues as written; N and C are the ends. Square brackets hold non-standard residues; d marks the D form. Peptide text beside a SMILES is read from it. I, II: the chains in the order shown. Actinocin(9to1) = Cc1c2oc3c(C)ccc(C(=O)[*:1])c3nc-2c(C(=O)[*:2])c(N)c1=O; NMeV = CN[C@H](C(=O)O)C(C)C; Sar = CNCC(=O)O

Biological target: Caspase-7 (Homo sapiens) (UniProt P55210)
Sequence of UniProt P55210 (P55210 whole entry, looked up): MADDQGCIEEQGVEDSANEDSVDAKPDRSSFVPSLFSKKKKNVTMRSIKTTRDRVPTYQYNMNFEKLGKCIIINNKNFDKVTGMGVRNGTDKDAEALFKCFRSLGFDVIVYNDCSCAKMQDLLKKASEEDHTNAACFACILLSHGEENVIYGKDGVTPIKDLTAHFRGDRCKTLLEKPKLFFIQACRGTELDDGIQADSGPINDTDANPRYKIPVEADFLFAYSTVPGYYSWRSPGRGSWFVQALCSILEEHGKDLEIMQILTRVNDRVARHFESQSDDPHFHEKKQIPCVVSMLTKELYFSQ
Assay: qHTS Assay for Allosteric/Competitive Inhibitors of Caspase-7; for activity change, negative = inhibition: % of control where 0% means no effect
Conditions: recombinant caspase-7, Ac-DEVD-AFC fluorescence rate; activity change, negative = inhibition: at 57.5 µM (top of the series) unless noted
Potency is the fitted concentration of half-maximal effect; tags give direction and shape of the fitted curve or compound fluorescence and quenching.

SMILES | Potency | activity change, negative = inhibition
COc1ccc(Oc2ncc3nc(-c4cccs4)c(=O)n(C)c3n2)cc1 | inconclusive: 10 µM [fluorescent, side channel, partial curve] | 
Cc1c2oc3c(C)ccc(C(=O)N[C@@H]4C(=O)N[C@H](C(C)C)C(=O)N5CCC[C@H]5C(=O)N(C)CC(=O)N(C)[C@@H](C(C)C)C(=O)O[C@@H]4C)c3nc-2c(C(=O)N[C@@H]2C(=O)N[C@H](C(C)C)C(=O)N3CCC[C@H]3C(=O)N(C)CC(=O)N(C)[C@@H](C(C)C)C(=O)O[C@@H]2C)c(N)c1=O (I: T[dV]P[Sar][NMeV] / II: T[dV]P[Sar][NMeV]; ester I:1-I:C, II:1-II:C; linker I:N-II:N via Actinocin(9to1)) | inconclusive: 31.6 µM [fluorescent, side channel, partial curve] | 
COc1ccc(CCn2c(N)c(C(=O)NCc3ccco3)c3nc4ccccc4nc32)cc1OC | inconclusive: 25.1 µM [fluorescent, partial curve] | 
CN1CCN(c2ncc3nc(-c4ccccc4)c(=O)n(Cc4ccc(F)cc4)c3n2)CC1 | inconclusive: 7.94 µM [fluorescent, side channel, partial curve] | 
Cn1cnc([N+](=O)[O-])c1Sc1nc(N)nc2c1ncn2[C@H]1C[C@H](O)[C@@H](CO)O1 |  | inactive: -2.49% [at 11.5 µM]
Cc1ccc(-n2nc(C)c3c(-c4cccs4)c(C#N)c(N)nc32)cc1 | inconclusive: 39.8 µM [inhibitor, single point] | 
Cc1ccc(S(=O)(=O)c2c(N)n(CC3CCOC3)c3nc4ccccc4nc23)cc1 (stereo not given) | inconclusive: 25.1 µM [fluorescent, partial curve] | 
COc1cccc(Oc2cn[nH]c2-c2ccc(OC)cc2O)c1 |  | inactive: -5.96%
O=c1c2cc(N3CCOCC3)ccc2[nH]c(=S)n1Cc1ccccn1 | inconclusive: 25.1 µM [fluorescent, partial curve] | 
COc1cc(CN2CCCCC2)cc2cc(C(=O)O)c(=O)oc12 |  | inactive: -0.332% [at 11.5 µM]
O=C(c1cnccn1)N1CCC2(CC1)CN(c1ccncc1)C2 |  | inactive: -0.9%
CSc1ccc(-c2c(C#N)c(N)nc3c2c(C)nn3-c2ccccc2)cc1 | inconclusive: 20 µM [inhibitor, single point] | 
Oc1ccc(Br)cc1-c1nc2cnccn2c1NC1CCCC1 | inconclusive: 15.8 µM [fluorescent, side channel, partial curve] | 
CCN1CCC2(CC1)C(C#N)=C(N)Oc1c2sc2nc(C)cc(C)c12 | inconclusive: 31.6 µM [inhibitor, single point] | 
COc1ccc(-n2c(N)c(C(=O)NCC3CCCO3)c3nc4ccccc4nc32)c(OC)c1 (stereo not given) | inconclusive: 12.6 µM [fluorescent, side channel, partial curve] | 
CC(C)OCCCn1c(-c2ccco2)nc2nc3ccccc3nc21 | inconclusive: 15.8 µM [fluorescent, partial curve] | 
CNc1oc(-c2cccc3ccccc23)nc1C#N | inconclusive: 25.1 µM [fluorescent, partial curve] | 
CC1=C(C(=O)OC(C)C)C(c2cccnc2)C2=C(CCCC2=O)N1 (stereo not given) | inconclusive: 25.1 µM [fluorescent, side channel, partial curve] | 

SMILES | Potency | activity change, negative = inhibition
O=C(CN1C(=O)c2cccc3cccc1c23)Nc1ccc2c(c1)OCO2 | inconclusive: 31.6 µM [fluorescent, single point] | 
C=CCn1c(N)c(C(=O)OC(C)CC)c2nc3ccccc3nc21 (stereo not given) | inconclusive: 12.6 µM [fluorescent, side channel, partial curve] | 
CN(C)c1ncc2nc(-c3cccc(C#N)c3)c(=O)n(C[C@H]3CCCO3)c2n1 | inconclusive: 0.794 µM [fluorescent, full curve] | 
COc1ccc(N2C(=O)C(Cl)=C(N3CCN(Cc4ccccc4)CC3)C2=O)cc1 |  | inactive: -4.32%
O=C1Nc2ccc(S(=O)(=O)NCc3ccco3)c3cccc1c23 | inconclusive: 25.1 µM [inhibitor, single point] | 
CCCNc1ncnc2sc(C)c(C)c12 |  | inconclusive: -67.8% [inhibitor] [at 0.00368 µM]
CCn1c2ccccc2c2nc3cc(OC)c(OC)cc3nc21 | inconclusive: 15.8 µM [fluorescent, partial curve] | 
CCOC(=O)c1cc2c(=O)n3ccccc3nc2n(CCCOC)c1=NC(=O)C(C)(C)C | inconclusive: 15.8 µM [fluorescent, side channel, partial curve] | 
CCn1nc(NC(=O)c2ccco2)c2cc3ccc(C)cc3nc21 | inconclusive: 15.8 µM [fluorescent, partial curve] | 
COc1cc2ccc(=O)oc2cc1O | inconclusive: 3.98 µM [fluorescent, side channel, partial curve] and inconclusive: 1.26 µM [fluorescent, side channel, full curve] and inconclusive: 5.01 µM [fluorescent, side channel, full curve] | 
CN(C)c1ccc(/C=c2\sc3n(c2=O)CCCN=3)cc1 | inconclusive: 25.1 µM [inhibitor, partial curve] | 
O=c1c(-c2ccc(F)cc2)nc2cnc(N3CCNCC3)nc2n1-c1ccccc1 | inconclusive: 5.01 µM [fluorescent, side channel, partial curve] | 
O=C(c1cc(-c2ccc3c(c2)OCO3)on1)N1CCOCC1 |  | inactive: 0.491%
O=C1Nc2ccc(I)cc2/C1=C/c1cc(Br)c(O)c(Br)c1 |  | inactive: -20.1%
CN(C)CCNc1c2c(c(C#N)c3nc4ccccc4n13)CCCC2 | inconclusive: 7.94 µM [fluorescent, partial curve] | 
CCc1cc2c(CN3CCN(C)CC3)cc(=O)oc2cc1O | inconclusive: 10 µM [fluorescent, side channel, partial curve] | 
CN(C)c1ncc2ncc(=O)n(CCc3ccccc3)c2n1 | inconclusive: 25.1 µM [fluorescent, partial curve] | 
